We go through one molecule from US20220194996A1 (STATENS SERUM INSTITUT, published 2022).

In the assay the target is rat mAb 45.1 (against Pfs48/45 conformational epitope I).

B1: Pro-6C fusion protein (Pfs230 Pro domain fused to Pfs48/45 6C), produced in L. lactis (other)
chain: GAMVDTLSGLSSEQGQSGDMTIEEDS[no letters for about 80 residues]GKATKGDAHIGGSEYVDEKERQGEIYPFGDEEEKDEGGESFTYEKSEVDKTDLFKFIEGGEGDDVYKVDGSKVLLDDDTISRVSKKHTARDGEYGEYGEAVEDGENVIKIIRSVLQSGALPSVGVDELDKIDLSYETTESGDTAVSEDSYDKYASNNTNKERSEKKVIHGCNFSSNVSSKHTFTDSLDISLVDDSAHISCNVHLSEPKYNHLVGLNCPGDIIPDCFFQVYQPESEELEPSNIVYLDSQINIGDIEYYEDAEGDDKIKLFGIVGSIPKTTSFTCICKKDKKSAYMTVTIDSAHHHHHH
Take B1: the “% of folding” value was found to be 90%.
